These results are taken from PubChem BioAssay AID360 (National Center for Advancing Translational Sciences (NCATS), 2006).

The whole screen tested about 48,000 compounds, of which about 550 (1.1%) were called active. About 4% were inconclusive and are not listed. Cut-off read from the data, not from the text of the source: active = potency below about 15 µM; inconclusive = mostly about 16 µM to 33 µM; inactive = weaker than that. The list shows a part of the results. Where only a bound is given, the exact number is not on record here.
Potency is the fitted concentration of half-maximal effect.

The target of the test is Lysosomal acid glucosylceramidase (Homo sapiens) (UniProt P04062). Briefly: Glucocerebrosidase.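 Note: the screen sought inhibitors.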 The settings on record: purified enzyme, resorufin glucoside fluorescence (screen aimed at inhibitors), 20 min. An outline of the steps: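 Compounds titrated against 0.2 nM normal enzyme, 30 uM resorufin beta-D-glucopyranoside substrate, citrate/phosphate buffer with taurocholate and tween-20, pH 5.9. Reaction ran 20 min at room temperature; fluorescence (Ex 548/Em 600) gave AC50.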
UniProt P04062, sequence (P04062 whole entry, looked up): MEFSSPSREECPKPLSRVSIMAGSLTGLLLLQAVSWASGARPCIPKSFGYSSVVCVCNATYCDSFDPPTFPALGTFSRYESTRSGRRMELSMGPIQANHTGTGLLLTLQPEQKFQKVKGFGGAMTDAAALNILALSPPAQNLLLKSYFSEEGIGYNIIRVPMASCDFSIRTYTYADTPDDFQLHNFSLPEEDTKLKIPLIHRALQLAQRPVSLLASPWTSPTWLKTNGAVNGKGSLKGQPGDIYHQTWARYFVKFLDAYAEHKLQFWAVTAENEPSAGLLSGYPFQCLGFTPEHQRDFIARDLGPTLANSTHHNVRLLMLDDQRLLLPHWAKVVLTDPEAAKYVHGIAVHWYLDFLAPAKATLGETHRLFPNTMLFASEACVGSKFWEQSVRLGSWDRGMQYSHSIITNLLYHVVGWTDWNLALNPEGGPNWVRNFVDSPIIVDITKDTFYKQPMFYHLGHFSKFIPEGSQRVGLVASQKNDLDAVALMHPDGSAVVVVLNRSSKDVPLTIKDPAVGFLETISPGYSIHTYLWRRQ
Turning to `CCOC(=O)Nc1ccc2c(c1)N(C(=O)CCN1CCOCC1)c1ccccc1S2`, the Potency result was “inactive”. In the case of `COC(=O)c1cc(Br)c(=O)n(Cc2ccncc2)c1` it was inactive: > 76.9 µM; in that of `Cc1cc(Cl)cc(C)c1OCCCCn1ccnc1`, inactive: > 76.9 µM; in that of `COc1ccccc1NC(=O)CNC(=O)c1ccc(F)cc1`, inactive: > 76.9 µM. For the compound `CCCOc1ccc(/C(O)=C2/C(=O)C(=O)N(CCOC)C2c2cccnc2)cc1` (stereo not drawn), the Potency was inactive: > 76.9 µM. On to `CN1CCN(C(c2cccc(C(F)(F)F)c2)c2nnnn2C(C)(C)C)CC1` (stereo not drawn), for which the Potency is inactive: > 76.9 µM. As for `Cc1nn(-c2ccccc2)c(C)c1C(=O)OC/C(O)=C(\C#N)c1nc2ccccc2[nH]1`, the Potency was inactive: > 76.9 µM.

`Cc1ccccc1NC(=O)c1c(F)c(F)c(F)c(F)c1F`: the Potency is inactive: > 76.9 µM. As for `COc1ccc2[nH]c(=O)c(CN(C(=O)NC3CCCCC3)C3CCCC3)cc2c1`, the figure is inactive: > 76.9 µM. Regarding `COC(=O)c1cc(Br)c(=O)n(CCc2ccccc2)c1`, the Potency is inactive: > 76.9 µM. As for `COc1ccc(Cl)cc1CN1CCN(c2nc(C)cc(C)c2C#N)CC1`, the Potency is inactive: > 76.9 µM. Consider `Cc1ccc(NC(=O)Cn2c(C)cc(C)c(C#N)c2=O)c(Cl)c1`, for which the Potency was inactive: > 76.9 µM. In the case of `CC(C)(CNS(=O)(=O)c1ccc(Cl)cc1)N1CCCCC1` it was inactive: > 76.9 µM; in that of `O=C(Nc1ccon1)c1sc2cc(F)ccc2c1Cl`, inactive: > 76.9 µM. Regarding `CCOC(=O)CNC(=O)CSc1nc2sc(C)c(C)c2c(=O)n1C`, the Potency is inactive: > 76.9 µM.

On to `CSCCC(NC(N)=O)C(=O)NCC1CCCCC1` (stereo not drawn), for which the Potency is inactive: > 76.9 µM. As to `COc1ccccc1CN(Cc1cc2c(C)ccc(C)c2[nH]c1=O)Cc1nnnn1Cc1ccco1`, the Potency is inactive: > 76.9 µM. As for `O=C(Nc1ncnc2sc3c(c12)CCC3)c1ccco1`, the figure is inactive: > 76.9 µM. Turning to `Nc1nc(N2C(=O)C3CC=CCC3C2=O)nn1-c1ccccc1` (stereo not drawn), the Potency is inactive: > 76.9 µM. On to `C=CCNC(=O)Nc1ccc2oc(C)nc2c1`, for which the Potency is inactive: > 76.9 µM. As for `O=C(NCc1cccnc1)c1ccc(COc2ccc3c(c2)CCC3)o1`, the figure is inactive: > 76.9 µM. On to `O=C(C1CC1)N(CCc1ccccc1)Cc1nc2ccccc2c(=O)[nH]1`, for which the Potency was inactive: > 76.9 µM. In the case of `CN(C(=O)c1ccccn1)c1nnc(-c2ccccn2)s1` it was inactive: > 76.9 µM; in that of `COCCCNC(=O)Cn1nnc(-c2ccccc2NC(=O)c2ccccc2F)n1`, inactive: > 76.9 µM. For the compound `O=C(Nc1c(Cl)cc(Cl)cc1C(=O)NCC1CCCO1)c1ccco1` (stereo not drawn), the Potency was inactive: > 76.9 µM. For `C=CCn1c(SCC(=O)Nc2cc(NC(C)=O)ccc2OC)nnc1-c1cccnc1`, the Potency was inactive: > 76.9 µM.

In the case of `Cc1nn(Cc2ccc(C(=O)NC3CCCCC3)o2)c(C)c1Br`, the Potency was inactive: > 76.9 µM. Turning to `O=C(NCCNC(=O)C(F)(F)F)c1ccncc1`, the Potency was inactive: > 76.9 µM. On to `CSc1nc2c(ccc3ccccc32)o1`, for which the Potency is inactive: > 76.9 µM.

`CC(C)OC(=O)Cn1c(=O)oc2ccccc21`: the Potency was inactive: > 76.9 µM.

On to `COC(=O)c1ccc(C(=S)N2CCOCC2)cc1`, for which the Potency is inactive: > 76.9 µM. For `CNc1nc(CC(C)=O)ns1`, the Potency is inactive: > 76.9 µM. Turning to `COC(=O)COc1nc(C)c(Br)c(OC)n1`, the Potency is inactive: > 76.9 µM. As for `CSc1ncccc1C(=O)OCC(=O)Nc1cc(C(F)(F)F)ccc1N1CCOCC1`, the Potency is inactive: > 76.9 µM.

Consider `COc1cc(C2Nc3ccc4ncccc4c3C3=C2C(=O)CCC3)ccc1O` (stereo not drawn), for which the Potency was inactive: > 76.9 µM.

Turning to `COC(=O)Nc1nc(C)c(C(=O)N(C)C)s1`, the Potency was inactive: > 76.9 µM.

For the compound `Cc1sc2ncn(CC(=O)NCCCC(=O)N3CCN(c4ccccn4)CC3)c(=O)c2c1C`, the Potency was inactive: > 76.9 µM.

`COc1ccc(S(=O)(=O)Nc2nc(C(F)(F)F)cs2)cc1`: the Potency was inactive: > 76.9 µM.

As for `Cc1cc2ncn(/N=C/c3cc(Br)ccc3O)c2cc1C`, the Potency is inactive: > 76.9 µM. Take `CCOC(=O)c1cc2sc(C)cc2n1CC(=O)NCCc1ccccc1`: the Potency was inactive: > 76.9 µM. As for `CCOC(=O)C1CCCN(Cc2c(Cl)cccc2Cl)C1` (stereo not drawn), the figure is inactive: > 76.9 µM; as for `Cn1c(=N)c(S(=O)(=O)c2ccc(Cl)cc2)cc2c(=O)n3ccccc3nc21`, inactive: > 76.9 µM; as for `Cc1nc(C)c(C(=O)Nc2nc3c(C)cccc3s2)o1`, inactive: > 76.9 µM. On to `COc1cccc2c1OC1(C)CC2NC(=O)N1c1cccc(C(=O)Nc2ccc3c(c2)OCCO3)c1` (stereo not drawn), for which the Potency was inactive: > 76.9 µM.

`Cn1nc(C(=O)NCc2ccccn2)c2ccccc2c1=O`: the Potency is inactive: > 76.9 µM. On to `O=C(CN(C(=O)CCNC(=O)c1ccco1)c1ccccc1)NC1CCCC1`, for which the Potency was inactive: > 76.9 µM. As for `CCC(C)NC(=O)Cn1c(=O)n(CCCCC(=O)NCc2ccco2)c(=O)c2ccccc21` (stereo not drawn), the figure is inactive: > 76.9 µM; as for `CCCCN(CC)CCNC(=O)CN(C)S(=O)(=O)c1ccc2c(c1)c(=O)n(C)c(=O)n2C`, inactive: > 76.9 µM. `O=C1CSC(=S)N1c1cccnc1`: the Potency is inactive: > 76.9 µM. As for `CC(=O)Oc1c(S(=O)(=O)c2ccc(C)cc2)c(C)nn1-c1ccccc1`, the figure is inactive: > 76.9 µM. For the compound `O=C(Nc1nc(-c2ccco2)cs1)c1ccccc1`, the Potency was inactive: > 76.9 µM. As to `O=C1c2ccccc2C(=O)N1c1nc2nccc(-c3ccccc3)n2n1`, the Potency was inactive: > 76.9 µM. In the case of `Cc1ccc(S(=O)(=O)C2(C(=O)N(C)C3CCCCC3)CC2)cc1` it was inactive: > 76.9 µM; in that of `CS(=O)(=O)N(CC(=O)N1CCC(C(N)=O)CC1)C1CCCCC1`, inactive: > 76.9 µM.

As to `CCOC(=O)C1CCN(C(=O)CC(NS(=O)(=O)c2ccc(OC)cc2)C(C)C)CC1` (stereo not drawn), the Potency was inactive: > 76.9 µM. For `CCC(C)NC(=O)C1c2ccccc2C(=O)N1Cc1cc(OC)ccc1OC` (stereo not drawn), the Potency was inactive: > 76.9 µM. Regarding `COc1cc(OC)cc(C(=O)Nn2cc(C(=O)N3CCN(C)CC3)c3ccccc3c2=O)c1`, the Potency was inactive: > 76.9 µM.

Take `COc1cccc2cc(C(=O)Nc3cccnc3N3CCOCC3)c(=O)oc12`: the Potency was inactive: > 76.9 µM. With `O=C(CSc1nc2ccccc2o1)N1CCCC1`, the Potency is inactive: > 76.9 µM. On to `CC(=O)NCCn1c(SCc2cc(=O)n3cc(Cl)ccc3n2)nc2ccccc2c1=O`, for which the Potency is inactive: > 76.9 µM. On to `NC(=O)C1CCN(C2CC(=O)N(c3cccc(F)c3)C2=O)CC1` (stereo not drawn), for which the Potency is inactive: > 76.9 µM.

`Cn1c(SCC(=O)NC2CC2)nnc1C(F)(F)F`: the Potency was inactive: > 76.9 µM.

For `O=C(COC(=O)C1CCCO1)Nc1cccc(C(F)(F)F)c1` (stereo not drawn), the Potency is inactive: > 76.9 µM.

With `CCCCOC(=O)c1ccc(N2C(=O)CC(N3CCN(C/C=C/c4ccccc4)CC3)C2=O)cc1` (stereo not drawn), the Potency was inactive: > 76.9 µM.

Turning to `CCOC(=O)c1cc2occc2n1CC(=O)N1CCOCC1`, the Potency is inactive: > 76.9 µM. Regarding `Cc1nc2[nH]c(=O)c3c(n2n1)NC1=C(C(=O)CC(C)(C)C1)C3c1ccccc1` (stereo not drawn), the Potency was inactive: > 76.9 µM. Consider `CCCCSc1nc(C)c(CC(=O)OC)c(=O)[nH]1`, for which the Potency is inactive: > 76.9 µM. For `CCC1Sc2ccccc2N(CC(=O)NC2CCCC2)C1=O` (stereo not drawn), the Potency is inactive: > 76.9 µM. For the compound `COc1ccc(-c2nnco2)cc1OC`, the Potency is inactive: > 76.9 µM. For the compound `CC(=O)C1=C(O)C(=O)N(Cc2ccccc2)C1c1ccco1` (stereo not drawn), the Potency was inactive: > 76.9 µM. For the compound `COc1ccc(OCC(=O)N2CCN(C(=O)COc3ccc(Br)cc3)CC2)cc1`, the Potency was inactive: > 76.9 µM. In the case of `CON(C)c1nc(OCCNC(=O)OCc2ccc(Cl)cc2Cl)nc(N(C)C)n1` it was inactive: > 76.9 µM.

Regarding `CCCCC(=O)Nc1cccc(-c2nnc(-c3ccccc3)o2)c1`, the Potency is inactive: > 76.9 µM.

In the case of `Cn1c(CN2CCOCC2)c(C#N)c2ccccc21`, the Potency is inactive: > 76.9 µM. `C=CCN1C(=O)CSC1=Nc1cccc(O)c1`: the Potency is inactive: > 76.9 µM. As for `Cc1ccc2c(CN3C(=O)NC4(CCCCC4)C3=O)cc(=O)oc2c1C`, the figure is inactive: > 76.9 µM; as for `COCCN(CCOC)c1ncc(Cl)c(C(=O)c2c(C)cc3ccccn23)n1`, inactive: > 76.9 µM. In the case of `C(=N\c1nc2ccccc2n1CCN1CCOCC1)/c1cccs1` it was inactive: > 76.9 µM; in that of `O=C1CCNc2cc3ccccc3cc21`, inactive: > 76.9 µM; in that of `COc1ccccc1NC(=O)c1ccc(NS(=O)(=O)c2c(C)noc2C)cc1`, “inactive”. Turning to `CCOC(=O)NC1(C(F)(F)F)N=C(c2ccccc2)NC1=O` (stereo not drawn), the Potency is inactive: > 76.9 µM. Turning to `N#Cc1ccc(CSc2nnc(-c3cccs3)n2-c2ccccc2)cc1`, the Potency was inactive: > 76.9 µM.

As to `O=C1CCCc2c1cc(C(=O)NCc1ccco1)c(=O)n2-c1ccccc1`, the Potency was inactive: > 76.9 µM. As for `CC(C)n1c(SC2C(=O)CC(C)(C)CC2=O)nc2c1c(=O)n(C)c(=O)n2C`, the figure is inactive: > 76.9 µM. `CCOC(=O)Cc1csc(SCC(=O)Nc2cccc(C#N)c2)n1`: the Potency was inactive: > 76.9 µM. As to `CCOC(=O)CCc1nn(C)c(=O)c2ccccc12`, the Potency was inactive: > 76.9 µM. For `Cc1cc(N2CCOCC2)n2nc(C)c(-c3ccccc3)c2n1`, the Potency is inactive: > 76.9 µM. In the case of `CCOc1cc(S(=O)(=O)NCc2ccccn2)c(C)cc1C` it was inactive: > 76.9 µM; in that of `CC(=O)c1cc2c(cc1NC(=O)CSc1nnc(C)s1)OCO2`, inactive: > 76.9 µM; in that of `N#C/C(=C\c1ccco1)Sc1nc2ccccc2s1`, inactive: > 76.9 µM.

For `Cn1c(SCc2ccccc2)nnc1C1CCCNC1` (stereo not drawn), the Potency was inactive: > 76.9 µM. `O=c1oc2ccccc2c(N2CCCCC2)c1CN1CCCCC1`: the Potency was inactive: > 76.9 µM. Take `COc1cccc(C2=NO[C@@H]3C(=O)N(c4ccc5c(c4)OCCO5)C(=O)[C@H]23)c1OC`: the Potency was inactive: > 76.9 µM.
